Values quoted from earlier work as cited in PMC7892437 (Frontiers in Pharmacology, 2021).

Test system: COVID-19
Conditions: patients critically ill with COVID-19; ref Horby and Landrain, 2020; cited from earlier work

C[C@@H]1C[C@H]2[C@@H]3CCC4=CC(=O)C=C[C@]4(C)[C@@]3(F)[C@@H](O)C[C@]2(C)[C@@]1(O)C(=O)CO [Dexamethasone]
cut in deaths: one-third
